# The list shows a part of the results.
# Tests used:
# Experiment in all cases: glycan array binding signal (z-score within array); higher = stronger binding
# Conditions in all cases: glycan notation: IUPAC condensed, linker removed
# [1] = molecular target: Glc(b1-6)Glc
# Summary of the method: (§1)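 The Consortium for Functional Glycomics database supplied 3228 glycan arrays, of which those lacking an available protein sequence were dropped. The binding signal, a within-array Z-score, was averaged across arrays of the same protein sequence and across linkers. Negative scores can be read as non-binding.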
# [2] = molecular target: GlcA(b1-3)Gal
# Summary of the method: as §1
# [3] = molecular target: GlcA(b1-3)GlcNAc
# Summary of the method: as §1
# [4] = molecular target: GlcA(b1-6)Gal
# Summary of the method: as §1
# [5] = molecular target: GlcA3S(b1-3)Gal(b1-4)GlcNAc(b1-2)Man
# Summary of the method: as §1
# [6] = molecular target: GlcA3S(b1-3)Gal(b1-4)GlcNAc(b1-3)Gal(b1-4)Glc
# Summary of the method: as §1
# [7] = molecular target: GlcNAc(a1-3)Gal(b1-4)GlcNAc
# Summary of the method: as §1
# [8] = molecular target: GlcNAc(a1-4)Gal(b1-3)GlcNAc
# Summary of the method: as §1
# [9] = molecular target: GlcNAc(a1-4)Gal(b1-4)GalNAc
# Summary of the method: as §1
# [10] = molecular target: GlcNAc(a1-4)Gal(b1-4)GlcNAc
# Summary of the method: as §1
# [11] = molecular target: GlcNAc(a1-4)Gal(b1-4)GlcNAc(b1-3)Gal(b1-4)Glc
# Summary of the method: as §1
# [12] = molecular target: GlcNAc(a1-4)Gal(b1-4)GlcNAc(b1-3)Gal(b1-4)GlcNAc
# Summary of the method: as §1
# [13] = molecular target: GlcNAc(a1-4)Gal(b1-4)GlcNAc(b1-3)Gal(b1-4)GlcNAc(b1-3)Gal(b1-4)GlcNAc
# Summary of the method: as §1
# [14] = molecular target: GlcNAc(a1-4)Gal(b1-4)GlcNAc(b1-3)Gal(b1-4)[Fuc(a1-3)]GlcNAc(b1-3)Gal(b1-4)[Fuc(a1-3)]GlcNAc
# Summary of the method: as §1
# [15] = molecular target: GlcNAc(a1-6)Gal(b1-4)GlcNAc
# Summary of the method: as §1
# [16] = molecular target: GlcNAc(b1-2)Gal(b1-3)GalNAc
# Summary of the method: as §1
# [17] = molecular target: GlcNAc(b1-2)Man(a1-3)[GlcNAc(b1-2)Man(a1-6)]Man(b1-4)GlcNAc(b1-4)GlcNAc
# Summary of the method: as §1
# [18] = molecular target: GlcNAc(b1-2)Man(a1-3)[GlcNAc(b1-2)Man(a1-6)]Man(b1-4)GlcNAc(b1-4)[Fuc(a1-6)]GlcNAc
# Summary of the method: as §1
# [19] = molecular target: GlcNAc(b1-2)Man(a1-3)[GlcNAc(b1-4)][GlcNAc(b1-2)Man(a1-6)]Man(b1-4)GlcNAc(b1-4)GlcNAc
# Summary of the method: as §1
# [20] = molecular target: GlcNAc(b1-2)Man(a1-3)[GlcNAc(b1-4)][GlcNAc(b1-2)Man(a1-6)]Man(b1-4)GlcNAc(b1-4)[Fuc(a1-6)]GlcNAc
# Summary of the method: as §1
# [21] = molecular target: GlcNAc(b1-2)[GlcNAc(b1-4)]Man(a1-3)[GlcNAc(b1-2)Man(a1-6)]Man(b1-4)GlcNAc(b1-4)GlcNAc
# Summary of the method: as §1
# [22] = molecular target: GlcNAc(b1-2)[GlcNAc(b1-4)]Man(a1-3)[GlcNAc(b1-4)][GlcNAc(b1-2)Man(a1-6)]Man(b1-4)GlcNAc(b1-4)GlcNAc
# Summary of the method: as §1
# [23] = molecular target: GlcNAc(b1-2)[GlcNAc(b1-4)]Man(a1-3)[GlcNAc(b1-4)][GlcNAc(b1-2)[GlcNAc(b1-6)]Man(a1-6)]Man(b1-4)GlcNAc(b1-4)GlcNAc
# Summary of the method: as §1
# [24] = molecular target: GlcNAc(b1-2)[GlcNAc(b1-4)]Man(a1-3)[GlcNAc(b1-4)][GlcNAc(b1-2)[GlcNAc(b1-6)]Man(a1-6)]Man(b1-4)GlcNAc(b1-4)[Fuc(a1-6)]GlcNAc
# Summary of the method: as §1
# [25] = molecular target: GlcNAc(b1-2)[GlcNAc(b1-6)]Man(a1-6)[GlcNAc(b1-2)Man(a1-3)]Man(b1-4)GlcNAc(b1-4)GlcNAc
# Summary of the method: as §1
# [26] = molecular target: GlcNAc(b1-2)[GlcNAc(b1-6)]Man(a1-6)[GlcNAc(b1-2)Man(a1-3)]Man(b1-4)GlcNAc(b1-4)[Fuc(a1-6)]GlcNAc
# Summary of the method: as §1
# [27] = molecular target: GlcNAc(b1-2)[GlcNAc(b1-6)]Man(a1-6)[GlcNAc(b1-4)][GlcNAc(b1-2)Man(a1-3)]Man(b1-4)GlcNAc(b1-4)GlcNAc
# Summary of the method: as §1
# [28] = molecular target: GlcNAc(b1-3)Fuc
# Summary of the method: as §1
# [29] = molecular target: GlcNAc(b1-3)Gal
# Summary of the method: as §1
# [30] = molecular target: GlcNAc(b1-3)Gal(b1-3)GalNAc
# Summary of the method: as §1
# [31] = molecular target: GlcNAc(b1-3)Gal(b1-4)Glc
# Summary of the method: as §1
# [32] = molecular target: GlcNAc(b1-3)Gal(b1-4)GlcNAc
# Summary of the method: as §1
# [33] = molecular target: GlcNAc(b1-3)Gal(b1-4)GlcNAc(b1-2)Man(a1-3)[GlcNAc(b1-3)Gal(b1-4)GlcNAc(b1-2)Man(a1-6)]Man(b1-4)GlcNAc(b1-4)GlcNAc
# Summary of the method: as §1
# [34] = molecular target: GlcNAc(b1-3)Gal(b1-4)GlcNAc(b1-2)Man(a1-3)[GlcNAc(b1-3)Gal(b1-4)GlcNAc(b1-2)Man(a1-6)]Man(b1-4)GlcNAc(b1-4)[Fuc(a1-6)]GlcNAc
# Summary of the method: as §1
# [35] = molecular target: GlcNAc(b1-3)Gal(b1-4)GlcNAc(b1-2)[GlcNAc(b1-3)Gal(b1-4)GlcNAc(b1-6)]Man(a1-6)[GlcNAc(b1-3)Gal(b1-4)GlcNAc(b1-2)Man(a1-3)]Man(b1-4)GlcNAc(b1-4)GlcNAc
# Summary of the method: as §1
# [36] = molecular target: GlcNAc(b1-3)Gal(b1-4)GlcNAc(b1-3)Gal(b1-4)GlcNAc
# Summary of the method: as §1
# [37] = molecular target: GlcNAc(b1-3)Gal(b1-4)GlcNAc(b1-3)Gal(b1-4)GlcNAc(b1-2)Man(a1-3)[GlcNAc(b1-3)Gal(b1-4)GlcNAc(b1-3)Gal(b1-4)GlcNAc(b1-2)Man(a1-6)]Man(b1-4)GlcNAc(b1-4)GlcNAc
# Summary of the method: as §1
# [38] = molecular target: GlcNAc(b1-3)Gal(b1-4)GlcNAc(b1-3)Gal(b1-4)GlcNAc(b1-2)Man(a1-3)[GlcNAc(b1-3)Gal(b1-4)GlcNAc(b1-3)Gal(b1-4)GlcNAc(b1-2)Man(a1-6)]Man(b1-4)GlcNAc(b1-4)[Fuc(a1-6)]GlcNAc
# Summary of the method: as §1
# [39] = molecular target: GlcNAc(b1-3)Gal(b1-4)GlcNAc(b1-3)Gal(b1-4)GlcNAc(b1-2)[GlcNAc(b1-3)Gal(b1-4)GlcNAc(b1-3)Gal(b1-4)GlcNAc(b1-6)]Man(a1-6)[GlcNAc(b1-3)Gal(b1-4)GlcNAc(b1-3)Gal(b1-4)GlcNAc(b1-2)Man(a1-3)]Man(b1-4)GlcNAc(b1-4)[Fuc(a1-6)]GlcNAc
# Summary of the method: as §1
# [40] = molecular target: GlcNAc(b1-3)Gal(b1-4)GlcNAc(b1-3)Gal(b1-4)GlcNAc(b1-3)Gal(b1-4)GlcNAc(b1-2)Man(a1-3)[GlcNAc(b1-3)Gal(b1-4)GlcNAc(b1-3)Gal(b1-4)GlcNAc(b1-3)Gal(b1-4)GlcNAc(b1-2)Man(a1-6)]Man(b1-4)GlcNAc(b1-4)GlcNAc
# Summary of the method: as §1
# [41] = molecular target: GlcNAc(b1-3)Gal(b1-4)GlcNAc(b1-3)Gal(b1-4)GlcNAc(b1-3)Gal(b1-4)GlcNAc(b1-2)Man(a1-3)[GlcNAc(b1-3)Gal(b1-4)GlcNAc(b1-3)Gal(b1-4)GlcNAc(b1-3)Gal(b1-4)GlcNAc(b1-2)Man(a1-6)]Man(b1-4)GlcNAc(b1-4)[Fuc(a1-6)]GlcNAc
# Summary of the method: as §1
# [42] = molecular target: GlcNAc(b1-3)Gal(b1-4)GlcNAc(b1-3)Gal(b1-4)GlcNAc(b1-3)Gal(b1-4)GlcNAc(b1-2)[GlcNAc(b1-3)Gal(b1-4)GlcNAc(b1-3)Gal(b1-4)GlcNAc(b1-3)Gal(b1-4)GlcNAc(b1-6)]Man(a1-6)[GlcNAc(b1-3)Gal(b1-4)GlcNAc(b1-3)Gal(b1-4)GlcNAc(b1-3)Gal(b1-4)GlcNAc(b1-2)Man(a1-3)]Man(b1-4)GlcNAc(b1-4)[Fuc(a1-6)]GlcNAc
# Summary of the method: as §1
# [43] = molecular target: GlcNAc(b1-3)Gal(b1-4)GlcNAc(b1-3)Gal(b1-4)GlcNAc(b1-3)Gal(b1-4)GlcNAc(b1-3)Gal(b1-4)GlcNAc(b1-2)Man(a1-3)[GlcNAc(b1-3)Gal(b1-4)GlcNAc(b1-3)Gal(b1-4)GlcNAc(b1-3)Gal(b1-4)GlcNAc(b1-3)Gal(b1-4)GlcNAc(b1-2)Man(a1-6)]Man(b1-4)GlcNAc(b1-4)GlcNAc
# Summary of the method: as §1
# [44] = molecular target: GlcNAc(b1-3)Gal(b1-4)GlcNAc(b1-3)Gal(b1-4)GlcNAc(b1-3)Gal(b1-4)GlcNAc(b1-3)Gal(b1-4)GlcNAc(b1-2)Man(a1-3)[GlcNAc(b1-3)Gal(b1-4)GlcNAc(b1-3)Gal(b1-4)GlcNAc(b1-3)Gal(b1-4)GlcNAc(b1-3)Gal(b1-4)GlcNAc(b1-2)Man(a1-6)]Man(b1-4)GlcNAc(b1-4)[Fuc(a1-6)]GlcNAc
# Summary of the method: as §1
# [45] = molecular target: GlcNAc(b1-3)Gal(b1-4)GlcNAc(b1-3)Gal(b1-4)GlcNAc(b1-3)Gal(b1-4)GlcNAc(b1-3)Gal(b1-4)GlcNAc(b1-2)[GlcNAc(b1-3)Gal(b1-4)GlcNAc(b1-3)Gal(b1-4)GlcNAc(b1-3)Gal(b1-4)GlcNAc(b1-3)Gal(b1-4)GlcNAc(b1-6)]Man(a1-6)[GlcNAc(b1-3)Gal(b1-4)GlcNAc(b1-3)Gal(b1-4)GlcNAc(b1-3)Gal(b1-4)GlcNAc(b1-3)Gal(b1-4)GlcNAc(b1-2)Man(a1-3)]Man(b1-4)GlcNAc(b1-4)[Fuc(a1-6)]GlcNAc
# Summary of the method: as §1
binder,measurement,setting,value
SBD-G4S3-Fc (protein) MASIPSSASVQLDSYNYDGSTFSGKIYVKNIAYSKKVTVVYADGSDNWNNNGNIIAASFSGPISGSNYEYWTFSASVKGIKEFYIKYEVSGKTYYDNNNSANYQVSTGGGGSGGGGSGGGGSEFVPRDCGCKPCICTVPEVSSVFIFPPKPKDVLTITLTPKVTCVVVDISKDDPEVQFSWFVDDVEVHTAQTQPREEQFNSTFRSVSELPIMHQDWLNGKEFKCRVNSAAFPAPIEKTISKTKGRPKAPQVYTIPPPKEQMAKDKVSLTCMITDFFPEDITVEWQWNGQPAENYKNTQPIMDTDGSYFVYSKLNVQKSNWEAGNTFTCSVLHEGLHNHHTEKSLSHSPGAA,glycan array binding signal (z-score),[1],0.309
same,glycan array binding signal (z-score),[2],-0.464
same,glycan array binding signal (z-score),[3],0.339
same,glycan array binding signal (z-score),[4],-0.04
same,glycan array binding signal (z-score),[5],-0.355
same,glycan array binding signal (z-score),[6],-0.042
same,glycan array binding signal (z-score),[7],-0.372
same,glycan array binding signal (z-score),[8],0.065
same,glycan array binding signal (z-score),[9],-0.294
same,glycan array binding signal (z-score),[10],-0.159
same,glycan array binding signal (z-score),[11],-0.301
same,glycan array binding signal (z-score),[12],-0.415
same,glycan array binding signal (z-score),[13],-0.285
same,glycan array binding signal (z-score),[14],0.231
same,glycan array binding signal (z-score),[15],-0.263
same,glycan array binding signal (z-score),[16],-0.34
same,glycan array binding signal (z-score),[17],-0.096
same,glycan array binding signal (z-score),[18],0.031
same,glycan array binding signal (z-score),[19],0.004
same,glycan array binding signal (z-score),[20],-0.315
same,glycan array binding signal (z-score),[21],-0.109
same,glycan array binding signal (z-score),[22],-0.26
same,glycan array binding signal (z-score),[23],-0.045
same,glycan array binding signal (z-score),[24],-0.304
same,glycan array binding signal (z-score),[25],-0.075
same,glycan array binding signal (z-score),[26],-0.217
same,glycan array binding signal (z-score),[27],-0.17
same,glycan array binding signal (z-score),[28],-0.309
same,glycan array binding signal (z-score),[29],-0.406
same,glycan array binding signal (z-score),[30],-0.128
same,glycan array binding signal (z-score),[31],-0.298
same,glycan array binding signal (z-score),[32],-0.186
same,glycan array binding signal (z-score),[33],-0.193
same,glycan array binding signal (z-score),[34],-0.174
same,glycan array binding signal (z-score),[35],0.413
same,glycan array binding signal (z-score),[36],-0.257
same,glycan array binding signal (z-score),[37],3.18
same,glycan array binding signal (z-score),[38],1.28
same,glycan array binding signal (z-score),[39],0.454
same,glycan array binding signal (z-score),[40],-0.039
same,glycan array binding signal (z-score),[41],1.91
same,glycan array binding signal (z-score),[42],-0.036
same,glycan array binding signal (z-score),[43],0.191
same,glycan array binding signal (z-score),[44],1
same,glycan array binding signal (z-score),[45],-0.078
